# Measured values: PubChem BioAssay AID686971 (National Center for Advancing Translational Sciences (NCATS), 2013)
# The campaign covered roughly 360,000 compounds. About 7,500 (2.1%) were called active. The call rests on the fitted dose curve; in most records, active means well fitted cell-killing curve with a large enough effect; inconclusive means small, poorly fitted or top-dose-only effect, or effect the other way, or another doubt; inactive means no such curve, though single readings can be large or run the other way. The inconclusive results got no clear call from the source. Potencies of inconclusive entries are left out as doubtful fits.
# Assay: qHTS for induction of synthetic lethality in tumor cells producing 2HG: qHTS for the HT-1080-IDH1KD cell line
# Settings: HT-1080 IDH1 knockdown viability, ATP luminescence, 48 h; series mostly up to 46.1 µM
# Source text: Unbiased genomic sequencing for 22 glioma genomes found recurrent mutation of IDH1 on chromosome 2q33, a gene encoding the cytosolic isoform of IIDH1 associated with the tri-carboxylic acid cycle (TCA) that catalyzes the oxidative decarboxylation of isocitrate, yielding alpha-ketoglutarate and CO2 via NADP+ to NADPH conversion. Subsequent studies confirmed the recurrent IDH mutations in up to 70% of secondary gliomas and in 10% of AML cases. […]
# Suspensions of trypsinized HT-1080-IDH1KD cells were dispensed into white, tissue culture-treated, solid 1536-well plates at 5uL/well (750 cells/well final concentration) in RPMI medium supplemented with 5% FBS. […] The plates were measured on a PerkinElmer ViewLux plate reader for luminescent signal (clear filter, 1 sec exp.). […]
# Concentration-response curves were fitted to the signals arising from the resulting luminescence. The concentration-effect curves were then classified based on curve quality (r2), response magnitude and degree of measured activity, and compounds were subsequently categorized based on their curve class.
# Potency means the concentration at half of the fitted maximal effect; tags describe the fitted curve by direction and shape.
row,Compound,Potency
1,Cc1ccccc1N/N=C/c1sc(=O)n(Cc2cccc(C(=O)O)c2)c1Cl,"inconclusive [cytotoxic, full curve]"
